Over roughly 33,000 sequences, “E-score (-0.5 to 0.5)” has its median near -0.035; the highest 2% begin near 0.34. This is one part of the list.
biological target: T1, Mot3 (UniProt P54785); assay: PBM E-score (8-mer binding enrichment) (E-score (-0.5 to 0.5)); higher = stronger / more preferred TF binding; most listed sequences are background and not binding sites; conditions: protein concentration: 200 nM; construct: GST-full length
T1 sequence: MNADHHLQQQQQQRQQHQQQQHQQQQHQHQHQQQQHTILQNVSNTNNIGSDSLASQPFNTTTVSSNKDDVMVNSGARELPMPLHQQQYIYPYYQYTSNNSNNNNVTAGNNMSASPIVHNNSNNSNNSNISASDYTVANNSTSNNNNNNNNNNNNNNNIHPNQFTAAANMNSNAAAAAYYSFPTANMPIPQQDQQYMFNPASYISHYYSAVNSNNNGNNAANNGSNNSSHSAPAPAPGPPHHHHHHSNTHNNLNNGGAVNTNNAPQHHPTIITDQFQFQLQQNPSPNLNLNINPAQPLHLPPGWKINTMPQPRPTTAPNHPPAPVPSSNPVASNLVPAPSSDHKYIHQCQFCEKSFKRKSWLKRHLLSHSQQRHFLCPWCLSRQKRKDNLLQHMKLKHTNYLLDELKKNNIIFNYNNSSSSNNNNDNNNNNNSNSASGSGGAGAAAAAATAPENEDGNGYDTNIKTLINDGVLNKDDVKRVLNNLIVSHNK
Outline: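 Yeast transcription factors carrying a GST tag, as full-length proteins or DNA-binding domains, were produced by PURExpress in vitro transcription/translation. About 100-200 nM protein was applied to universal all-10-mer Agilent arrays, double-stranded by primer extension on fresh or once-stripped slides. Bound protein was detected with fluorescent anti-GST, and scans were normalised with masliner. The Universal PBM Analysis Suite gave each ungapped eight-base word, pooled with its reverse complement, an E-score, a modified Wilcoxon-Mann-Whitney statistic.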

Sequence | PBM E-score
CGATACAG | -0.105
CCGGGAAG | -0.116
AAGATCGC | -0.0568
AAATCGCT | -0.132
CAGTAGCC | -0.215
GGTACTTA | -0.0015
ACCTTTGC | 0.0791
ATAGAGTC | -0.0873
CCAGTGGG | -0.139
CCGTAGCA | -0.189
CATTGACG | -0.0292
GAACGAAA | -0.0743
AGGTTAAC | 0.225
CCGTCCGA | -0.201
ACACGTCC | 0.161
ATATGTTG | 0.246
AAGGCCAG | 0.0775
AGCGTACT | -0.129
CTACCAAG | -0.0675
CAACGAAG | -0.00267
TACTTGAA | 0.201
GCAGTACA | 0.0866
AGACCAAT | -0.0148
AGGGCGGG | -0.23
ATATCTCC | -0.119

Sequence | PBM E-score
GTGAAGAA | 0.116
ATGGACAG | -0.172
CCCCAAAG | -0.132
GGAAATCA | -0.0276
GTCGAGAA | 0.0169
AGGTGCAA | 0.148
AAACGCGA | 0.155
GTCGCGTA | 0.309
ATCGCCAT | -0.0627
ATCCGCTC | -0.252
ATAAAGAC | -0.00279
ATTAAAAG | 0.106
AAGCGAGT | -0.0166
ACTTATAG | -0.0587
CGAGAATA | -0.0446
ACACACAC | 0.291
GGATTACA | 0.371
AGTGATAT | -0.178
CATCGGCA | 0.104
CATCTTGG | -0.0926
CGAAGTAC | 0.00632
GAAGGGGC | -0.127
TGAGAACA | 0.15
CGTGGTCA | 0.0859
AATATTAC | 0.242

Sequence | PBM E-score
ACTCTGGC | -0.393
ATAAAATG | -0.0118
CAGTATCC | -0.0235
GAACCGAC | -0.0799
CGGATAAC | 0.139
GGGCGCAC | -0.281
CTCCCTAC | 0.019
AGCGGGAT | -0.277
ATATCGCA | -0.233
AAGGACCA | -0.13
ATCATCGG | -0.248
ATAACAAT | 0.126
ACCCCCAC | -0.221
TAAGGGGA | 0.0151
ACTTCGAA | -0.0542
ATTGACGC | 0.09
AGAGTCAT | -0.241
AGCGTCAA | -0.046
GCGCGTTA | 0.235
ACACGTGT | 0.363
AGGATGAC | -0.178
ATGGTCGA | -0.0987
ACAGATGG | -0.119
CGGTATTA | -0.0614
GAACGTCA | -0.147

Sequence | PBM E-score
GGAAGAGA | 0.0688
CCGCCAGC | -0.227
ATTGAGTA | 0.165
CCGGGAGG | -0.236
CAGAAGGC | 0.232
CGAAATGA | 0.0554
CTGTTGGA | 0.0392
AGACAGAA | -0.00345
GATATGGC | -0.45
ATTTCATG | -0.00351
GGAGACTA | -0.0846
TAGCTGAA | -0.0324
ATGGCCTG | -0.157
AAAGAGCC | -0.167
CTTTGCTC | -0.176
AGCTTAAG | 0.00822
GTCTGCAC | -0.211
GCTATATA | 0.105
CGATCAAC | 0.0859
CCCCGCTC | -0.426
ACGGTCCA | -0.0522
ATGAGATG | -0.0735
ACATCACG | 0.152
ACCGCCCC | -0.0601
TACACTAA | 0.159

Sequence | PBM E-score
AGGGCTGC | -0.252
GAAACCCC | 0.00285
CATCAGAA | 0.0925
GGACACGA | 0.0135
GGGTTTGA | -0.165
GTGTGTCA | 0.269
ATTTCGGA | -0.137
AGCAAGAA | -0.0228
AGTTCCCG | -0.116
CGCTTCCG | -0.233
AACTAGGC | 0.32
ACCGGACT | -0.371
CAGCGATG | -0.197
GAGCCAAC | 0.0965
GAGTTGAC | -0.0628
CAGTCCTA | -0.167
CTTGCCGA | -0.0816
ATAACCTA | 0.131
CCGCACCG | -0.0682
ATTAGCTC | -0.0536
ACCTCAGC | -0.124
ACATTGAA | 0.196
ATCTAGCC | -0.296
CAGACTCG | -0.238
ACACGCTC | 0.305

Sequence | PBM E-score
GGGGCGCA | -0.306
CACTCGCC | -0.0805
GGGCCTGA | -0.00612
AGGGCATG | -0.0789
AGCCTACA | 0.227
ACCGTGAA | 0.00486
GACGAATA | 0.00511
CGTACAGA | 0.0129
AAGGAATG | 0.114
ATCTTCAA | 0.0714
AATATGAG | 0.106
ACAGGTGC | 0.278
ACTGATGG | -0.195
ACGGGCGA | -0.158
ACGTAGTA | 0.122
AGTGCCAG | -0.0756
CCGGTACA | 0.0242
CAACAGCC | 0.2
ATGTCATC | 0.0793
CACGAAGA | 0.0476
AATACGTC | 0.0595
CTTACGCA | 0.301
TCATACAA | 0.00761
CCAGCTCG | -0.248
ATATTCTG | -0.00598

Sequence | PBM E-score
CTATTGAA | 0.03
CGGAGGCC | -0.224
CACTGGCA | 0.014
ATTACATC | 0.356
ATTAGCGA | -0.0915
ACTTGTCC | -0.15
CTAAGGTA | 0.226
AGTGTATG | -0.123
AGGCGTCA | 0.156
ACGCTTAG | -0.0324
AATCGTCT | -0.136
AGACTACA | 0.0747
CAGGTTCG | -0.00261
ATTTATGC | -0.0077
GACAAAAC | 0.0176
TTAAGTAA | 0.0348
CTAAGGAC | -0.231
CGGGGACC | -0.0971
ATTCCGAG | -0.22
AAGCATTC | -0.0643
AGCCGCAG | -0.211
ACTGTACC | 0.0206
GAGAGACA | -0.16
CGTAATCC | 0.186
GGTAGCTA | -0.0263

Sequence | PBM E-score
TAGTGACA | 0.124
AGGTATAT | 0.0556
ACAAGCCT | 0.116
AGATAAGG | -0.0101
AGGGGATC | -0.231
ATTGTCAG | 0.0338
AGCGACCC | -0.252
GTCTGCAA | -0.0815
CTAGTTGA | 0.089
CCCTGTAA | 0.251
ACTCAGTG | -0.127
CCTCGTCA | -0.0766
AATTAGAG | -0.0584
AAAAAGCT | -0.177
CTCACTAC | -0.0176
ATATATGG | 0.165
ACCATATC | -0.208
CGAGGGCG | -0.276
ACACAGAC | 0.237
AGGTTAAA | 0.142
ATTCTCAA | 0.11
AGTACATA | 0.362
GCAGTTCC | 0.0335
CAGCTTGA | -0.121
AGTCTAAG | -0.0577

Sequence | PBM E-score
CGCTCCCC | -0.197
TCCTCAAA | 0.0707
AGAATATA | 0.0352
AACGGGCA | 0.0168
AATGCATC | -0.106
AAATGCTA | 0.063
TATGCAAA | 0.0598
GGCCGACC | -0.307
ACGATTCA | -0.163
AGGGTAAT | -0.0805
CAGTGTCA | 0.0984
CCACGCTA | -0.194
AGCCTCCG | -0.0828
TACATAGA | 0.357
CTCTACGA | 0.0109
ACGCAAGA | -0.0148
ATGGAAAG | 0.0416
GCAACCGC | -0.0326
AGAGGGGA | -0.331
